Reference: article PMC4336329 (PLoS ONE, 2015)
Screen size: about 310,000 compounds; about 2,200 (0.71%) showed an effect of 50% or more. The effect is printed as a negative number. The list shows a part of the results.

Target: human ether-à-go-go-related gene (hERG) potassium channel (human, UniProt Q12809)
Experiment: primary screen, population patch clamp on CHO cells stably expressing hERG

human ether-à-go-go-related gene (hERG) potassium channel, sequence (Q12809 whole entry, looked up): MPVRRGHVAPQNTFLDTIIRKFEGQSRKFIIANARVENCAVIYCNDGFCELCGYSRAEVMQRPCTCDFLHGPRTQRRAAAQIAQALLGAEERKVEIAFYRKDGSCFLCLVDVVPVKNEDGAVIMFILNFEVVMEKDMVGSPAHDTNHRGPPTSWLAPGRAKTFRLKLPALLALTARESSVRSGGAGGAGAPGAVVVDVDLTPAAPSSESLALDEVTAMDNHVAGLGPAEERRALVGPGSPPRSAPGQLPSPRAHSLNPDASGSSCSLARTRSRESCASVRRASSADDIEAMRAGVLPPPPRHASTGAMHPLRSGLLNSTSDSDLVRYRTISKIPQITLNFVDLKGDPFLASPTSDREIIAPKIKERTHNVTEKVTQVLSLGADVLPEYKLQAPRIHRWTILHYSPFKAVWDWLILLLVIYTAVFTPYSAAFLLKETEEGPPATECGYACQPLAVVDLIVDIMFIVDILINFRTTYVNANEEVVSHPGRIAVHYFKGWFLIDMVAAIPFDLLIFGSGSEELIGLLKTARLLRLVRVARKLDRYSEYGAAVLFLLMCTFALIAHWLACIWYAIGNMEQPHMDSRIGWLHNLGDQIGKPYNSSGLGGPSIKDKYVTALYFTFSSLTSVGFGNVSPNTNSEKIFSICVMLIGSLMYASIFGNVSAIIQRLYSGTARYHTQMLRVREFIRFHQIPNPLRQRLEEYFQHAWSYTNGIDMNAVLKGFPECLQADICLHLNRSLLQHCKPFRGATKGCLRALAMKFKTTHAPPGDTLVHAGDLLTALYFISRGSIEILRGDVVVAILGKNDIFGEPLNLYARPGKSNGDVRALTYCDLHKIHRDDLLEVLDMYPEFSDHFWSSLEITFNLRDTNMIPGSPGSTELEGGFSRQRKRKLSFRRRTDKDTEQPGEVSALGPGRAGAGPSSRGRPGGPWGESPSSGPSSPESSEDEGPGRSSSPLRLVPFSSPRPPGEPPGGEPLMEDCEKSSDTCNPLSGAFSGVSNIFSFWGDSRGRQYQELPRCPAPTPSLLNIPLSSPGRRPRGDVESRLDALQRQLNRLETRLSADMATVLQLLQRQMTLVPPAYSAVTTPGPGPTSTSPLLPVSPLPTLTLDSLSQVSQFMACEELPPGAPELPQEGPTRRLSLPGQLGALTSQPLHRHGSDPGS

Structure (SMILES) | hERG current change (%, negative = inhibition) at 1uM
O=C(NCc1ccc(S(=O)(=O)Nc2ccccc2Cl)s1)c1ccccc1 | 8.93%
O=C(Nc1cccc(S(=O)(=O)N2CCCC2)c1)c1ccncc1 | -18.1%
COc1ccc(CC(=O)N2CCCC(C)C2)cc1 (centres unmarked) | 13.2%
COc1ccc(-c2ccc(C(C)=O)cc2)cc1[C@H]1[C@@H]2C=CCC[C@@]2(C)C(=O)N1Cc1ccccc1 | 21.9%
COc1ccc(/C=C(\NC(=O)c2ccc(C)cc2)C(=O)NCCCn2ccnc2)cc1OC | 12.1%
CCOC(=O)c1ccc(N2C(=O)CC(C)(CC)CC2=O)cc1 | 11.3%
Cc1ccccc1C(=O)Nc1ccccc1NC(=O)c1ccccc1Br | 14.4%
Fc1cccc(Cc2noc(CN3CCN(C4CCc5ccccc5C4)CC3)n2)c1 (centres unmarked) | -67.5%
Cc1onc(-c2ccccc2)c1C(=O)c1c[nH]c(C(=O)NCc2ccncc2)c1 | 2.86%
CCC(c1nnnn1Cc1ccccc1)N(Cc1ccco1)Cc1cc2cc(OC)ccc2[nH]c1=O (centres unmarked) | -0.423%
COc1ccc(N2CCN(C(=O)CSc3nnnn3C3CC3)CC2)cc1 | 6.75%
CC12C=CC3(O1)C(C(=O)N(c1cccnc1)C3C(=O)NC1CCCCC1)C2C(=O)Nc1ccccc1 (centres unmarked) | 23.5%
CCCCn1c(N)c(N(CCOC)C(=O)C(C)Oc2ccc(Cl)cc2)c(=O)[nH]c1=O (centres unmarked) | 3.51%
O=C(CNS(=O)(=O)c1ccccc1)OCC(=O)c1ccc(OC(=O)c2ccccc2)cc1 | 0.118%
Cn1c(=O)c2c(ncn2CC(=O)N2CCCCCC2)n(C)c1=O | 14.5%
CCCCNc1c(-c2cccc(-c3ccc(OC)cc3)c2)nc2ccc(C)cn12.O=C(O)C(F)(F)F | 4.1%
CNNC(=S)NCCC1=CCCCC1 | 10.2%
COc1ccc(N2CCN(S(=O)(=O)CCNC(=O)COc3ccc(Cl)cc3)CC2)cc1 | 28.3%
N#Cc1ccccc1OCC(=O)NC(N)=O | 8.8%
CC1Cc2ccccc2N1C(=O)CCn1c(=O)sc2ccccc21 (centres unmarked) | 16.7%
Cc1cccc(C)c1N(CC(O)Cn1c2ccccc2c2ccccc21)S(C)(=O)=O (centres unmarked) | 20.5%
COc1ccc(N(CC(=O)NCCc2ccc(OC)c(OC)c2)S(=O)(=O)c2c(C)noc2C)cc1 | 3.54%
COc1ccc(C(=O)/C=C/Sc2nc3ccccc3o2)cc1 | 15.9%

Structure (SMILES) | hERG current change (%, negative = inhibition) at 1uM
COC(=O)c1cccc2c1-c1ccccc1/C2=N\NC(N)=O | 8.56%
COc1cc(OC)cc(-c2nc(SCC(=O)Nc3ccccc3F)n[nH]2)c1 | 11.9%
O=C(COc1ccc2ccccc2c1)Nc1nnc(-c2ccco2)s1 | -1.16%
CCN(CC)CCCNC(=O)c1cn(CC)c2ccc(S(=O)(=O)N3CCc4ccccc4C3)cc2c1=O | 1.94%
O=C(Nc1cccc(Cl)c1)c1cccc(N2C(=O)C3CC=CCC3C2=O)c1 (centres unmarked) | -3.6%
CN(C)c1ccc(/C=C(/NC(=O)c2ccccc2)C(=O)NCCCn2ccnc2)cc1 | 16.1%
CCN1CCC(Nc2ccnc3cc(Cl)ccc23)CC1 | -0.974%
CSc1nnc(-c2sc3cc(Cl)ccc3c2Cl)n1C | 0.997%
Fc1ccc(CN(Cc2ccccc2)C(c2cccs2)c2nnnn2C2CCCCC2)cc1 (centres unmarked) | 2.28%
COc1ccccc1NC(=O)N1CCN(S(C)(=O)=O)CC1 | 12.8%
Cc1ccc(NC(=O)COc2ccc3c(c2)OCO3)c(Cl)c1 | 19.1%
CC(OC(=O)CC1CCCC1)C(=O)Nc1ccc(S(N)(=O)=O)cc1 (centres unmarked) | -7.85%
CC(=O)C1=C(C)NC(=S)NC1c1cc([N+](=O)[O-])ccc1O (centres unmarked) | 10.2%
Cn1c2ccccc2c(=O)c2ccc(F)cc21 | 11.7%
CCOc1ccc(CCNC(=O)COC(=O)c2cc(OC)c(OC)cc2[N+](=O)[O-])cc1OCC | 13.7%
c1cnc(Sc2ccc3nnnn3n2)nc1 | -29.8%
CCOc1ccc(C(=O)NC2CCN(C(=O)Nc3ccc(F)cc3)CC2)cc1 | 6.75%
CCC1(C)Cc2sc3c(=O)[nH]c(=S)[nH]c3c2CO1 (centres unmarked) | 13.6%
COc1cc(NC(=O)C2CCCN2C(=O)C2CCC(C)CC2)cc(OC)c1OC (centres unmarked) | -0.772%
Cc1ccccc1C(=O)Nc1ccc(N2CCN(C)CC2)nc1 | 10.3%
CSc1cccc(NS(=O)(=O)c2cccs2)c1 | 7.8%
Cc1ccc(NC(=O)CCNC(=O)c2ccc(Cl)cc2)cc1C | 12.4%
CCOC(=O)C1=C(C)Nc2ccccc2N/C1=N\S(=O)(=O)c1ccc(Cl)cc1 | 0.996%

Structure (SMILES) | hERG current change (%, negative = inhibition) at 1uM
O=C1[C@@H]2Cc3c([nH]c4ccccc34)C(c3ccc([N+](=O)[O-])cc3)N2C(=O)CN1C1CC1 (some centres unmarked) | 12.3%
O=[N+]([O-])c1nn(-c2ccccc2)[n+]([O-])c1N1CCN(c2ccccc2F)CC1 | 11.5%
Cc1cc(-c2nnc(SCc3ccccn3)o2)no1 | 8.45%
Cc1nc(N2CCN(c3ccccn3)CC2)c2c(C)c(C(=O)N3CCN(c4ccccc4F)CC3)sc2n1 | 6.56%
O=C(O)/C(=C\c1cccs1)Sc1nnc(-c2ccc(F)cc2)o1 | 7.47%
O=C(Nn1c(-c2ccccc2)nc2ccccc2c1=O)c1cccs1 | 18.3%
CCOC(=O)CN1C(=O)C2(OCCCO2)c2cc(Br)ccc21 | 11.1%
Cc1nn(-c2ccccc2)c(N)c1Sc1ccccc1[N+](=O)[O-] | 12.9%
Cc1ccc2[nH]c(=O)c(CNS(=O)(=O)c3ccccc3)c(-c3ccccc3)c2c1 | 9.41%
O=C(NC1CCCC1)C1CC1c1ccccc1 (centres unmarked) | 4.44%
COc1ccc(C(C)=O)cc1CSc1ccccn1 | 3.52%
Cc1cc(NCc2ccccc2)nc(-c2ccccc2O)n1 | 12.6%
CCOC(=O)C1CCCN(C(=O)Cc2c(C(=O)O)[nH]c3ccccc23)C1 (centres unmarked) | -4.97%
C=CCN1C(=O)c2cccc3c(Br)ccc(c23)C1=O | 10.1%
CCOc1ccc(NC(=S)N=Nc2c(O)[nH]c3ccccc23)cc1 | 12.1%
O=C(CSc1nnc(-c2ccncc2)n1Cc1ccco1)Nc1ccccc1F | 6.98%
Cc1ccc(S(=O)c2ccc(C)cc2)cc1 | 3.27%
COc1ccc(C(=O)COC(=O)c2ccc(N(C)C)cc2)cc1 | 6.2%
Fc1ccc(-n2cc(-c3ccccc3)[n+]3c2SCC3)cc1.[Br-] | 0.345%
CCC(C)NC(=O)Nc1ccc(Br)cc1 (centres unmarked) | -6.84%
CNC(=O)c1csc(-c2ccc(Cl)cc2)n1 | 0.835%
O=c1[nH]c(=O)n(Cc2ccc(F)cc2)c(O)c1C=NCCCN1CCOCC1 | -5.3%
COC(=O)c1cccc(NC(=O)/C=C/c2ccc([N+](=O)[O-])cc2)c1 | 1.02%

Structure (SMILES) | hERG current change (%, negative = inhibition) at 1uM
CC(=O)Nc1ccc2nc(CN3CCN(CC=C(C)C)C(CCO)C3)ccc2c1 (centres unmarked) | 3.95%
CC(=O)Nc1ccc(S(=O)(=O)Nc2cccc(C(=O)NC(C)(C)C)c2)cc1 | -4.58%
CCOc1ccccc1CN1CCN(Cc2ccon2)CC1CCO (centres unmarked) | -7.08%
Cc1occc1C(=O)NNC(=S)Nc1ccccc1 | 8.65%
CC1=NNC(=O)C1CC(=O)N/N=C(\C)c1ccco1 (centres unmarked) | 15.7%
CNC(=S)N(CCc1ccc(OC)c(OC)c1)Cc1cc2c(C)cc(C)cc2[nH]c1=O | 2.31%
O=C(CNC(=O)c1cccs1)NCC(=O)OCc1c(Cl)cccc1Cl | 1.99%
COc1ccc(CC(=O)Nc2ccc(-c3noc(-c4ccccc4OC)n3)cc2)cc1 | -11.7%
Cc1cc2n(n1)C(c1ccccc1Cl)Nc1ccccc1-2 (centres unmarked) | 7.12%
CCC1=NN2C(=N)/C(=C/c3ccc(OS(=O)(=O)c4ccccc4)c(OC)c3)C(=O)N=C2S1 | 13%
O=C(NCCc1ccccc1)NC(Cc1ccccc1)C(=O)O (centres unmarked) | 12.6%
CC(C)(C)C1CCC(OC(=O)C[N+]2(C)CCCCC2)CC1.[I-] (centres unmarked) | 7.41%
Br.COc1cccc(C(=O)Cn2c(=N)n(C)c3ccccc32)c1 | -17.5%
COc1cc(CCC(=O)Nc2nnc(-c3cccnc3)s2)cc(OC)c1OC | 9.73%
Cc1ccc(NC(=O)/C(C#N)=C/c2ccccc2C(F)(F)F)cc1 | 4.19%
Cc1cc(C)cc(OCC(=O)N/N=C/c2ccco2)c1 | 18.2%
CN(C)S(=O)(=O)c1ccc(C(=O)Nc2ccccn2)cc1 | 3.36%
COc1cccc(-n2cn[nH]c2=S)c1 | 12%
N#Cc1nc(Cc2cccc3ccccc23)oc1NCC1CCCO1 (centres unmarked) | 3.91%
O=C(N/N=C/c1ccc(Cl)cc1Cl)Nc1ccccc1 | 23.1%
